Usually IC50 stands for the concentration at which inhibition is half-maximal.

The experiment has as its target N-terminal truncated recombinant human PDE7B enzyme (Homo sapiens (Human), UniProt Q9NP56). Nature of the experiment: biochemical.
In the case of `CN(C)CCCN(C)C(=O)c1cc2cc(Cl)c3c(c2o1)C1(CCCCC1)NC(=O)N3` [Example 264, 5′-Chloro-N-[3-(dimethylamino)propyl]-N-methyl-7′-oxo-7′,8′-dihydro-6′H-spiro[cyclohexane-1,9′-furo[2,3-f]quinazoline]-2′-carboxamide], the IC50 fell in the range of 100 to 1000 nM.
The same measure for `O=C1Nc2c(Cl)cc3cc(C(=O)N4CCN5CCC[C@H]5C4)oc3c2C2(CCCCC2)N1` [Example 265, 2′-[(8aS)-octahydropyrrolo[1,2-a]piperazine-2-carbonyl]-5′-chloro-7′,8′-dihydro-6′H-spiro[cyclohexane-1,9′-furo[2,3-f]quinazoline]-7′-one]: 10 to 100 nM.
`CN(CCc1ccccn1)C(=O)c1cc2cc(Cl)c3c(c2o1)C1(CCCCC1)NC(=O)N3` [Example 266, 5′-Chloro-N-methyl-7′-oxo-N-[2-(pyridin-2-yl)ethyl]-7′,8′-dihydro-6′H-spiro[cyclohexane-1,9′-furo[2,3-f]quinazoline]-2′-carboxamide]: the IC50 lay within 10 to 100 nM.
To `CN(CCC#N)C(=O)c1cc2cc(Cl)c3c(c2o1)C1(CCCCC1)NC(=O)N3` [Example 267, 5′-Chloro-N-(2-cyanoethyl)-N-methyl-7′-oxo-7′,8′-dihydro-6′H-spiro[cyclohexane-1,9′-furo[2,3-f]quinazoline]-2′-carboxamide] belongs 10 to 100 nM; to `CCOCCNC(=O)c1cc2cc(Cl)c3c(c2o1)C1(CCCCC1)NC(=O)N3` [Example 268, 5′-Chloro-N-(2-ethoxyethyl)-7′-oxo-7′,8′-dihydro-6′H-spiro[cyclohexane-1,9′-furo[2,3-f]quinazoline]-2′-carboxamide], 10 to 100 nM; to `O=C1Nc2c(Cl)cc3cc(C(=O)NCC4CCCO4)oc3c2C2(CCCCC2)N1` (centres unmarked) [Example 269, 5′-Chloro-7′-oxo-N-(oxolan-2-ylmethyl)-7′,8′-dihydro-6′H-spiro[cyclohexane-1,9′-furo[2,3-f]quinazoline]-2′-carboxamide], 10 to 100 nM.
To `COCCN(C(=O)c1cc2cc(Cl)c3c(c2o1)C1(CCCCC1)NC(=O)N3)C(C)C` [Example 270, 5′-Chloro-N-(2-methoxyethyl)-7′-oxo-N-(propan-2-yl)-7′,8′-dihydro-6′H-spiro[cyclohexane-1,9′-furo[2,3-f]quinazoline]-2′-carboxamide] belongs 10 to 100 nM.
On to `O=C1Nc2c(Cl)cc3cc(C(=O)NCCc4cccs4)oc3c2C2(CCCCC2)N1` [Example 271, 5′-Chloro-7′-oxo-N-[2-(thiophen-2-yl)ethyl]-7′,8′-dihydro-6′H-spiro[cyclohexane-1,9′-furo[2,3-f]quinazoline]-2′-carboxamide], for which the IC50 lay within 100 to 1000 nM.
On to `O=C1Nc2c(Cl)cc3cc(C(=O)NC4CCCC4)oc3c2C2(CCCCC2)N1` [Example 272, 5′-Chloro-N-cyclopentyl-7′-oxo-7′,8′-dihydro-6′H-spiro[cyclohexane-1,9′-furo[2,3-f]quinazoline]-2′-carboxamide], for which the IC50 lay in the range of 100 to 1000 nM.
To `CCN(CCO)C(=O)c1cc2cc(Cl)c3c(c2o1)C1(CCCCC1)NC(=O)N3` [Example 273, 5′-Chloro-N-ethyl-N-(2-hydroxyethyl)-7′-oxo-7′,8′-dihydro-6′H-spiro[cyclohexane-1,9′-furo[2,3-f]quinazoline]-2′-carboxamide] belongs 10 to 100 nM.
Take `O=C1Nc2c(Cl)cc3cc(C(=O)N4CCCC(O)C4)oc3c2C2(CCCCC2)N1` (centres unmarked) [Example 274, 5′-Chloro-2′-(3-hydroxypiperidine-1-carbonyl)-7′,8′-dihydro-6′H-spiro[cyclohexane-1,9′-furo[2,3-f]quinazoline]-7′-one]: the IC50 is 10 to 100 nM.
For the compound `O=C1Nc2c(Cl)cc3cc(C(=O)NCCn4cccc4)oc3c2C2(CCCCC2)N1` [Example 275, 5′-Chloro-7′-oxo-N-[2-(1H-pyrrol-1-yl)ethyl]-7′,8′-dihydro-6′H-spiro[cyclohexane-1,9′-furo[2,3-f]quinazoline]-2′-carboxamide], the IC50 was in the range of 10 to 100 nM.
As for `CN1CCC(N(C)C(=O)c2cc3cc(Cl)c4c(c3o2)C2(CCCCC2)NC(=O)N4)C1` (centres unmarked) [Example 276, 5′-Chloro-N-methyl-N-(1-methylpyrrolidin-3-yl)-7′-oxo-7′,8′-dihydro-6′H-spiro[cyclohexane-1,9′-furo[2,3-f]quinazoline]-2′-carboxamide], the IC50 is 100 to 1000 nM.
In the case of `CN(CCC(O)c1ccccc1)C(=O)c1cc2cc(Cl)c3c(c2o1)C1(CCCCC1)NC(=O)N3` (centres unmarked) [Example 277, 5′-Chloro-N-(3-hydroxy-3-phenylpropyl)-N-methyl-7′-oxo-7′,8′-dihydro-6′H-spiro[cyclohexane-1,9′-furo[2,3-f]quinazoline]-2′-carboxamide], the IC50 was in the range of 10 to 100 nM.
For the compound `CC(C)CC1(CO)CCCN(C(=O)c2cc3cc(Cl)c4c(c3o2)C2(CCCCC2)NC(=O)N4)C1` (centres unmarked) [Example 278, 5′-Chloro-2′-[3-(hydroxymethyl)-3-(2-methylpropyl)piperidine-1-carbonyl]-7′,8′-dihydro-6′H-spiro[cyclohexane-1,9′-furo[2,3-f]quinazoline]-7′-one], the IC50 lay in the range of 10 to 100 nM.
In the case of `COc1cccc(CN(C)C(=O)c2cc3cc(Cl)c4c(c3o2)C2(CCCCC2)NC(=O)N4)c1OC` [Example 279, 5′-Chloro-N-[(2,3-dimethoxyphenyl)methyl]-N-methyl-7′-oxo-7′,8′-dihydro-6′H-spiro[cyclohexane-1,9′-furo[2,3-f]quinazoline]-2′-carboxamide], the IC50 lay within 10 to 100 nM.
With `O=C1Nc2c(Cl)cc3cc(C(=O)N4CCn5cc(C(F)(F)F)nc5C4)oc3c2C2(CCCCC2)N1` [Example 280, 5′-Chloro-2′-[2-(trifluoromethyl)-5H,6H,7H,8H-imidazo[1,2-a]pyrazine-7-carbonyl]-7′,8′-dihydro-6′H-spiro[cyclohexane-1,9′-furo[2,3-f]quinazoline]-7′-one], the IC50 fell in the range of 10 to 100 nM.
Turning to `O=C1Nc2c(Cl)cc3cc(C(=O)NCCCN4CCOCC4)oc3c2C2(CCCCC2)N1` [Example 281, 5′-Chloro-N-[3-(morpholin-4-yl)propyl]-7′-oxo-7′,8′-dihydro-6′H-spiro[cyclohexane-1,9′-furo[2,3-f]quinazoline]-2′-carboxamide], the IC50 was 10 to 100 nM.
In the case of `COc1ccccc1CN(C)C(=O)c1cc2cc(Cl)c3c(c2o1)C1(CCCCC1)NC(=O)N3` [Example 282, 5′-Chloro-N-[(2-methoxyphenyl)methyl]-N-methyl-7′-oxo-7′,8′-dihydro-6′H-spiro[cyclohexane-1,9′-furo[2,3-f]quinazoline]-2′-carboxamide], the IC50 lay within 10 to 100 nM.
The same measure for `O=C1Nc2c(Cl)cc3cc(C(=O)N4CCCC(Cn5ccnc5)C4)oc3c2C2(CCCCC2)N1` (centres unmarked) [Example 283, 5′-Chloro-2′-[3-(1H-imidazol-1-ylmethyl)piperidine-1-carbonyl]-7′,8′-dihydro-6′H-spiro[cyclohexane-1,9′-furo[2,3-f]quinazoline]-7′-one]: 10 to 100 nM; for `CCOC(=O)CN1CCN(C(=O)c2cc3cc(Cl)c4c(c3o2)C2(CCCCC2)NC(=O)N4)CC1` [Example 284, Ethyl 2-[4-({5′-chloro-7′-oxo-7′,8′-dihydro-6′H-spiro[cyclohexane-1,9′-furo[2,3-f]quinazoline]-2′-yl}carbonyl)piperazin-1-yl]acetate]: 10 to 100 nM.
Regarding `COc1ccc(CN(C)C(=O)c2cc3cc(Cl)c4c(c3o2)C2(CCCCC2)NC(=O)N4)c(OC)c1` [Example 285, 5′-Chloro-N-[(2,4-dimethoxyphenyl)methyl]-N-methyl-7′-oxo-7′,8′-dihydro-6′H-spiro[cyclohexane-1,9′-furo[2,3-f]quinazoline]-2′-carboxamide], the IC50 is 10 to 100 nM.
The same measure for `COc1cccc(CN(C)C(=O)c2cc3cc(Cl)c4c(c3o2)C2(CCCCC2)NC(=O)N4)c1` [Example 286, 5′-Chloro-N-[(3-methoxyphenyl)methyl]-N-methyl-7′-oxo-7′,8′-dihydro-6′H-spiro[cyclohexane-1,9′-furo[2,3-f]quinazoline]-2′-carboxamide]: 10 to 100 nM; for `CCN(C(=O)c1cc2cc(Cl)c3c(c2o1)C1(CCCCC1)NC(=O)N3)C1CCOC(C)(C)C1` (centres unmarked) [Example 287, 5′-Chloro-N-(2,2-dimethyloxan-4-yl)-N-ethyl-7′-oxo-7′,8′-dihydro-6′H-spiro[cyclohexane-1,9′-furo[2,3-f]quinazoline]-2′-carboxamide]: 10 to 100 nM.
The same measure for `CN(Cc1nc2ccccc2n1C)C(=O)c1cc2cc(Cl)c3c(c2o1)C1(CCCCC1)NC(=O)N3` [Example 288, 5′-Chloro-N-methyl-N-[(1-methyl-1H-1,3-benzodiazol-2-yl)methyl]-7′-oxo-7′,8′-dihydro-6′H-spiro[cyclohexane-1,9′-furo[2,3-f]quinazoline]-2′-carboxamide]: 10 to 100 nM; for `COc1cc(CN(C)C(=O)c2cc3cc(Cl)c4c(c3o2)C2(CCCCC2)NC(=O)N4)cc(OC)c1` [Example 289, 5′-Chloro-N-[(3,5-dimethoxyphenyl)methyl]-N-methyl-7′-oxo-7′,8′-dihydro-6′H-spiro[cyclohexane-1,9′-furo[2,3-f]quinazoline]-2′-carboxamide]: 100 to 1000 nM.
To `O=C1Nc2c(Cl)cc3cc(C(=O)N4CCn5ccnc5C4)oc3c2C2(CCCCC2)N1` [Example 290, 5′-Chloro-2′-{5H,6H,7H,8H-imidazo[1,2-a]pyrazine-7-carbonyl}-7′,8′-dihydro-6′H-spiro[cyclohexane-1,9′-furo[2,3-f]quinazoline]-7′-one] belongs 10 to 100 nM; to `O=C1Nc2c(Cl)cc3cc(C(=O)N4CCCC4c4ccccn4)oc3c2C2(CCCCC2)N1` (centres unmarked) [Example 291, 5′-Chloro-2′-[2-(pyridin-2-yl)pyrrolidine-1-carbonyl]-7′,8′-dihydro-6′H-spiro[cyclohexane-1,9′-furo[2,3-f]quinazoline]-7′-one], 10 to 100 nM; to `CN(CC(O)c1ccccc1)C(=O)c1cc2cc(Cl)c3c(c2o1)C1(CCCCC1)NC(=O)N3` (centres unmarked) [Example 292, 5′-Chloro-N-(2-hydroxy-2-phenylethyl)-N-methyl-7′-oxo-7′,8′-dihydro-6′H-spiro[cyclohexane-1,9′-furo[2,3-f]quinazoline]-2′-carboxamide], 10 to 100 nM.
